To fix the notation:
T1: human IL-1R-I (human, UniProt P14778 18-332, limits assumed)
T1 construct: bought recombinant protein; also called hIL-1R-I; hIL-1RI
T1 sequence (looked up): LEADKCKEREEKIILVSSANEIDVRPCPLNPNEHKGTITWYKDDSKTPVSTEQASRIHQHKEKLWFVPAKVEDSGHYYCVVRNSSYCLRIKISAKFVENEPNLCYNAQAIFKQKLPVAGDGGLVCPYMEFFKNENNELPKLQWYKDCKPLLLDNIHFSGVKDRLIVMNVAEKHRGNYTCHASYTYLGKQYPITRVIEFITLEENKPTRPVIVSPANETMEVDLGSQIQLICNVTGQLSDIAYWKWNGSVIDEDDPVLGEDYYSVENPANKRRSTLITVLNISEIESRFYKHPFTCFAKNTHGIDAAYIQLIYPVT

B1: Z19151 (Z-ABD) (designed binder)
chain: AQHDEALEVDAKYAKEVEDIQLEIFALPNLTRRQYTAFIRKLLDDPSQSSELLSEAKKLNDSQAPKVDYVLAEAKVLANRELDKYGVSDYYKNLINNAKTVEGVKALIDEILAALPYVPG
B2: Z19171 (Z-ABD) (designed binder)
chain: AQHDEALEVDAKYAKEIEDIQLEIFGLPNLTRKQYTAFIRKLLDDPSQSSELLSEAKKLNDSQAPKVDYVLAEAKVLANRELDKYGVSDYYKNLINNAKTVEGVKALIDEILAALPYVPG
B3: Z19160 (Z-ABD) (designed binder)
chain: AQHDEALEVDAKYAKEIEIIQMEIFYLPNLTRKQYTAFIRKLLDDPSQSSELLSEAKKLNDSQAPKVDYVLAEAKVLANRELDKYGVSDYYKNLINNAKTVEGVKALIDEILAALPYVPG
B4: Z19172 (Z-ABD) (designed binder)
chain: AQHDEALEVDAKYAKELEDVQLEIFSLPNLTRRQYTAFIRKLLDDPSQSSELLSEAKKLNDSQAPKVDYVLAEAKVLANRELDKYGVSDYYKNLINNAKTVEGVKALIDEILAALPYVPG
B5: Z19181 (Z-ABD) (designed binder)
chain: AQHDEALEVDAKYAKEVEEVQLEIYSLPNLTRRQYTAFIRKLLDDPSQSSELLSEAKKLNDSQAPKVDYVLAEAKVLANRELDKYGVSDYYKNLINNAKTVEGVKALIDEILAALPYVPG
B6: Z19168 (Z-ABD) (designed binder)
chain: AQHDEALEVDAKYAKEIERIQMEIFYLPNLTRRQYTAFIRKLFDDPSQSSELLSEAKKLNDSQAPKVDYVLAEAKVLANRELDKYGVSDYYKNLINNAKTVEGVKALIDEILAALPYVPG
B7: Z19169 (Z-ABD) (designed binder)
chain: AQHDEALEVDAKYAKEVEVIQMEIFGLPNLTRRQYTAFIRKLLDDPSQSSELLSEAKKLNDSQAPKVDYVLAEAKVLANRELDKYGVSDYYKNLINNAKTVEGVKALIDEILAALPYVPG
B8: Z19166 (Z-ABD) (designed binder)
chain: AQHDEALEVDAKYAKELEEVQMEIYFLPNLTRRQYTAFIRKLLDDPSQSSELLSEAKKLNDSQAPKVDYVLAEAKVLANRELDKYGVSDYYKNLINNAKTVEGVKALIDEILAALPYVPG
B9: Z19153 (Z-ABD) (designed binder)
chain: AQHDEALEVDAKYAKEIEEIQMEIFDLPNLTRRQYTAFIRKLLDDPSQSSELLSEAKKLNDSQAPKVDYVLAEAKVLANRELDKYGVSDYYKNLINNAKTVEGVKALIDEILAALPYVPG
B10: Z19180 (Z-ABD) (designed binder)
chain: AQHDEALEVDAKYAKEVEIIQMEIFHLPNLTRRQYTAFIRKLLDDPSQSSELLSEAKKLNDSQAPKVDYVLAEAKVLANRELDKYGVSDYYKNLINNAKTVEGVKALIDEILAALPYVPG
B11: Z19170 (Z-ABD) (designed binder)
chain: AQHDEALEVDAKYAKEVEEIQMEIFELPNLTRRQYTAFIRKLLDDPSQSSELLSEAKKLNDSQAPKVDYVLAEAKVLANRELDKYGVSDYYKNLINNAKTVEGVKALIDEILAALPYVPG
B12: Z19158 (Z-ABD) (designed binder)
chain: AQHDEALEVDAKYAKETEEIQMEIFALPNLTRRQYTAFIRKLLDDPSQSSELLSEAKKLNDSQAPKVDYVLAEAKVLANRELDKYGVSDYYKNLINNAKTVEGVKALIDEILAALPYVPG
B13: Z19159 (Z-ABD) (designed binder)
chain: AQHDEALEVDAKYAKETEEVQMEIFALPNLTRRQYTAFIRKLLDDPSQSSELLSEAKKLNDSQAPKVDYVLAEAKVLANRELDKYGVSDYYKNLINNAKTVEGVKALIDEILAALPYVPG

This experiment has as its target T1, human IL-1R-I. The experiment can be described thus: SPR screening; Z-ABD captured on anti-ABD, 100 nM hIL-1R-I injected.
Turning to B1, the Kd (as a rule, the equilibrium constant for the complex coming apart) was found to be 2.7 nM.

The molecule B2 registered a Kd of 3 nM.

In turn, B3 registered a Kd of 3.8 nM.

The molecule B4 returned a Kd of 4.5 nM.

B5 showed an equilibrium dissociation constant (Kd) of 9.7 nM.

On to B6, for which the Kd was determined as 4.6 nM.

The molecule B7 had a Kd of 2.7 nM. Against the preceding molecule, the Kd is about 1.7-fold lower.

With B8, the Kd came to 3.5 nM. This Kd and that of the molecule before are within 1.5-fold of each other.

Molecule B9 had a Kd of 3.1 nM.

Take B10: the Kd turned out to be 0.79 nM.

The molecule B11 returned a dissociation constant (Kd) of 2 nM.

For B12, the Kd is 1.5 nM.

In turn, B13 gave a Kd of 1.9 nM.

Values taken from patent US20250066451A1 (SWEDISH ORPHAN BIOVITRUM AB PUBL, published 2025).
